# Reference: PubChem BioAssay (Tox21)
# Where “and” joins values, the source holds several entries; their conditions need not be identical. Identical values can stand only once. The inconclusive results got no clear call from the source; some entries with a clear call stand among them for comparison. Where the call is inconclusive, the potency comes from a doubtful curve fit. Calls of active or inactive are those of the source. The call rests on the fitted dose curve; in most records, active means well fitted cell-killing curve with a large enough effect in the repeat runs; inconclusive means weak or mixed curves, or effect the other way; inactive means flat fitted curve, though single readings scatter.
# Test: qHTS RealTime-Glo MT Cell Viability Assay in HEK293 cells - 0 hour (AID 1224880); further: nearly all actives have a fitted effect of over 45% in size; on activity change, negative = cytotoxicity: top concentration of the series differs between compounds
# Conditions: RealTime-Glo luminescence; series mostly up to 76.8 µM; activity change, negative = cytotoxicity: at the top concentration
# Description: U.S. Tox21 Program National Center for Advancing Translational Sciences [NCATS] NIH Chemical Genomics Center [NCGC] U.S. Environmental Protection Agency [EPA] National Institutes of Environmental Health Sciences [NIEHS] National Toxicology Program [NTP] U.S. Food and Drug Administration [FDA] Tox21 Assay Overview: Measure of cell viability is critical in the cell-base assay. Analysis of cell viability is necessary for the characterization of cell responses to cytotoxic drugs and environmental stress. A RealTime-Glo MT Cell Viability Assay to monitor cell viability in real time of continues cell culture during 40 hours of compound treatment was used to screen Tox21 10K library compounds in Hek293 cells. The RealTime-Glo MT Cell Viability Assay is a nonlytic, homogeneous, bioluminescent method to measure cell viability in real time using a simple, plate-based method. The assay involves adding NanoLuc luciferase and a cell-permeant prosubstrate to cells in culture. Viable cells reduce the proprietary prosubstrate to generate a substrate for NanoLuc luciferase. This substrate diffuses from cells into the surrounding culture medium, where it is rapidly used by the NanoLuc Enzyme to produce a luminescent signal. The signal correlates with the number of viable cells, making the assay well suited for cytotoxicity studies.
# Tox21 Assay Protocol Summary: The mixture of Hek293 cell suspension and reagents were dispensed at 600cells/6 ul/well in 1536-well tissue culture treated black solid bottom plates using a Multidrop dispenser. After the assay plates were incubated at a 37 C/5% CO2 incubator for 5 hours, 23 nL of compounds dissolved in DMSO, positive and negative controls was transferred to the assay plate by a pintool work station. The plates were incubated at 37 C for 40 hours. The luminescence intensity were measured at 0h, 8h, 16h, 24h, 32h and 40h time points using ViewLux plate reader during compound treatment.
# On the % scale 0 is the no-effect control and ±100 the full control effect; potency means the concentration at half of the fitted maximal effect; tags describe the fitted curve by direction and shape.
SMILES,Potency,"activity change, negative = cytotoxicity"
CN1C[C@H]2c3ccccc3Oc3ccc(Cl)cc3[C@@H]2C1,"inconclusive: 16.9 µM [rising, partial curve]",
CCCCOCCOCCO,inactive,
C=CC(=O)Nc1cc2c(Nc3ccc(F)c(Cl)c3)ncnc2cc1OCCCN1CCOCC1,"inconclusive: 9.52 µM [falling, partial curve]",
COc1ccc(Nc2ccc(OC)cc2)cc1,"inconclusive: 5.6 µM [falling, full curve]",
Nc1nc2ccccc2n1Cc1ccc(F)cc1,"inconclusive: 26.8 µM [rising, partial curve]",
C[C@@H](CN(C)C)CN1c2ccccc2Sc2ccccc21,"inconclusive: 5.35 µM [rising, partial curve]",
O=C(O)c1cccc(N(Cc2cccnc2)c2ccc(OC(F)F)c(OC(F)F)c2)c1,active: 19.5 µM,
CCCCCCCCCCCCCCCC(=O)OC[C@H](O)[C@H]1OC(=O)C(O)=C1O,"inconclusive: 24.5 µM [rising, partial curve]",
CCCCC/C=C\C/C=C\CCCCCCCC(=O)O,"inconclusive: 34.1 µM [falling, partial curve]",
O=C1OC2(c3ccc(O)cc3Oc3cc(O)ccc32)c2ccc(N=C=S)cc21,active: 44.4 µM,
O=C(NO)C1(NS(=O)(=O)c2ccc(Oc3ccc(F)cc3)cc2)CCOCC1,"inconclusive: 43.6 µM [rising, single point]",
COC(=O)c1ccc(C)cc1,inactive,
Nc1ccc(C(=O)Nc2ccccc2N)cc1,,inactive: -4.35% [at 35.3 µM]
O=C(c1ccccc1)c1cc(Cl)ccc1O,,inactive: -6.42%
CCCCCCCCCCCCCC[N+](C)(C)C,"inconclusive: 48.9 µM [rising, partial curve, poor fit]",
COC(=O)C1=C(C)NC(COC(N)=O)=C(C(=O)OC(C)C)C1c1cccc(Cl)c1Cl (stereo not given),active: 2.68 µM,
CC(=O)[C@@]1(O)CC[C@H]2[C@@H]3C[C@H](C)C4=CC(=O)CC[C@]4(C)[C@H]3CC[C@@]21C,active: 6.74 µM,
OC(CCl)CCl,"inconclusive: 0.977 µM [rising, partial curve, poor fit]",
Cc1cc(=O)oc2cc(O)cc(O)c12,,inactive: -2.81%
CCCCCCCCCCCCCCCC[N+](C)(C)CC,"inconclusive: 26.8 µM [rising, partial curve]",

SMILES,Potency,"activity change, negative = cytotoxicity"
CCCCc1nc2cccnc2n1Cc1ccc(-c2ccccc2-c2nnn[nH]2)cc1,active: 21.9 µM,
NCCNc1cccc2ccccc12,"inconclusive: 13.8 µM [rising, partial curve] and inconclusive: 47.8 µM [rising, partial curve] and inconclusive: 10.7 µM [rising, partial curve]",
Cc1cccc2c1cc1ccc3cccc4ccc2c1c34,"inconclusive: 56.2 µM [rising, single point]",
Cc1ccc(CCn2c3c(c4cc(Cl)ccc42)CN(C)CC3)cn1,active: 16.9 µM,
CC(C)CC(C)(C)C,"inconclusive: 64 µM [falling, single point]",
O=C(c1ccc(F)cc1)C1CCN(CCn2c(=S)[nH]c3ccccc3c2=O)CC1,"inconclusive: 26.8 µM [falling, single point]",
CC(C)=CCC/C(C)=C/CO,inactive,
C[C@H]1[C@H]2CC[C@H]3[C@@H]4CC=C5C[C@@H](N(C)C)CC[C@]5(C)[C@H]4CC[C@]23CN1C,,inactive: 14.7% [at 35.3 µM]
Cc1cc(SC2=C(O)C[C@@](CCc3ccc(N)cc3)(C(C)C)OC2=O)c(C(C)(C)C)cc1CO,active: 11 µM,
O=C1OC2(c3ccccc31)c1cc(I)c(O)c(I)c1Oc1c2cc(I)c(O)c1I,active: 5.56 µM [middle of 4 runs],
COC(=O)C1=C(C)NC(C)=C(C(=O)O[C@@H]2CCCN(Cc3ccccc3)C2)[C@@H]1c1cccc([N+](=O)[O-])c1,active: 8.49 µM,
CN1CCN2c3ccccc3Cc3ccccc3C2C1 (stereo not given),"inconclusive: 16.9 µM [rising, partial curve]",
Cc1cc(C)c(N=Nc2c(O)c(S(=O)(=O)O)cc3cc(S(=O)(=O)O)ccc23)cc1C,"inconclusive: 2.73 µM [rising, partial curve]",
CCCCOC(=O)CCC(C)=O,,inactive: -8.15%
CCc1cccc(CC)c1NC(=O)CN(CC(=O)O)CC(=O)O,,inactive: -3.79% [at 35.3 µM]
Cc1ccc(O)c(O)c1,,inactive: -0.467%
CCC(C)N(C)C(=O)c1cc2ccccc2c(-c2ccccc2Cl)n1 (stereo not given),active: 31.7 µM,
CC(C)Nc1ccccc1,,inactive: 4.47%
CCCCOc1ccc(CC(=O)NO)cc1,,inactive: -5.88% [at 35.3 µM]
CCCCCCCCCCCC[N+](C)(C)C,"inconclusive: 61.6 µM [rising, single point]",
